This is an account of results in PubChem BioAssay AID1346428 (National Center for Advancing Translational Sciences (NCATS), 2018).

The campaign covered roughly 48,000 compounds. About 1,200 (2.5%) were called active. Another 2% or so got no clear call; they are omitted.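 How the source made its calls: active means activation of at least 60% and not above a set upper limit (about 1 call in 100 departs from these limits); inconclusive means activation of 40% to 60%, or above that upper limit; inactive means activation under 40%.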 This is one part of the list.

The target of this test is Probable G-protein coupled receptor 32 (Homo sapiens) (UniProt O75388). Nature of the test: qHTS for Agonists of Human Resolvin D1 Receptor DRV1. Further: 0% is about no effect. As to conditions: CHO-K1 GPR32 beta-arrestin PathHunter luminescence, 90 min; at 76.9 µM; hits give high values; zero percent set by DMSO-only wells. The method in brief: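 Cells are plated overnight, treated with compounds in DMSO for 90 minutes at 37 °C, and developed with PathHunter detection reagent for 1 hour before luminescence is read; signal reflects beta-arrestin binding to GPR32 in engineered CHO-K1 cells.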
UniProt O75388, sequence (O75388 whole entry, looked up): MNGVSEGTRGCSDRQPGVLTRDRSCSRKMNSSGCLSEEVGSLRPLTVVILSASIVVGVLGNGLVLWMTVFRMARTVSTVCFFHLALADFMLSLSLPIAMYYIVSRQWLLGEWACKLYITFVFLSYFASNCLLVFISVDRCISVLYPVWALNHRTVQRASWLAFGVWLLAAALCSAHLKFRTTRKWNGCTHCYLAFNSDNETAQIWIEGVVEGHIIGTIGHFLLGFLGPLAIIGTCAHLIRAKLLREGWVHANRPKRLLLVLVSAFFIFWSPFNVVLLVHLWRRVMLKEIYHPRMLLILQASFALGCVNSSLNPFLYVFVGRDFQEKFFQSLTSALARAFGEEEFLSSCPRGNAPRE
`O=C(O)Cc1ccc2c(c1)C(=O)c1ccccc1CO2`: the activation was inactive: -5.35%.
For `COc1ccc(S(=O)(=O)n2nc(-c3ccco3)nc2NCc2ccc(C(C)C)cc2)cc1`, the activation is inactive: -12.4%.
On to `CCOc1ccc(NC(=O)c2nc(S(=O)(=O)Cc3ccccc3F)ncc2Cl)cc1`, for which the activation was inactive: -25.3%.
The figure for `Cc1c(NC(=O)c2cccs2)cccc1-c1nc2cc(Cl)ccc2o1` is inactive: -11.8%; for `CCOc1ccc(C(=O)Nc2ccc(OCc3cc(=O)n4cccc(C)c4n3)cc2)cc1` it is inactive: -3.58%.
For `O=C(NCCCN1CCN(c2ccccc2F)CC1)c1ccc2nc(CCc3ccccc3)oc2c1`, the activation was inactive: 0.73%.
The figure for `COc1cccc(NC(=O)Cn2c(=O)n(Cc3ccc(F)cc3)c(=O)c3sc4ccccc4c32)c1` is inactive: -9.58%.
`CC(=O)NCCNC(=O)CCCc1nnc2n(CC(C)C)c(=O)c3sccc3n12`: the activation is inactive: -0.539%.
On to `Cc1nc2ccccc2n1Cc1ccc(Cl)cc1`, for which the activation is inactive: 26.4%.
The same measure for `COc1ccc(-c2cc(-c3nc(-c4cc(OC)c(OC)c(OC)c4)no3)[nH]n2)c(OC)c1`: inactive: -1.08%; for `COc1ccc(S(=O)(=O)NCc2cccn2Cc2cc(C)ccc2C)cc1OC`: inactive: -4.88%; for `CCc1nnc2c3ccccc3nc(Nc3cc(C)cc(C)c3)n12`: inactive: -5.42%.
As to `Cc1ccc(C(=O)Nc2cc(-c3cn4cccnc4n3)ccc2C)cc1C`, the activation was inactive: 13.2%.
The figure for `Cc1nnc(NC(=O)CSc2nccn2Cc2ccccc2)s1` is inactive: -5.5%; for `CSCCC(NS(=O)(=O)c1ccc2c(c1)oc(=O)n2C)C(=O)NCc1ccc(Cl)cc1` (stereo unspecified) it is inactive: 1.92%.
Take `Cc1ccc(C)c(NC(=O)c2nc(S(=O)(=O)Cc3ccc(F)cc3)ncc2Cl)c1`: the activation was inactive: 7.8%.
`CCS(=O)(=O)c1ncc(N(Cc2ccccc2)Cc2ccco2)c(C(=O)Nc2ccccc2C)n1`: the activation is inactive: -16.7%.
The same measure for `CCc1ccccc1S(=O)(=O)Cc1ccc(C(=O)NCCc2ccc(Cl)cc2)o1`: active: 65.7%; for `O=C(Nc1cc(-c2cccc(Cl)c2)nn1-c1ccccc1)c1ccccc1F`: inactive: 15.2%.
As for `NCC[C@H](O)C(=O)N[C@@H]1C[C@H](N)[C@@H](O[C@H]2O[C@H](CN)[C@@H](O)[C@H](O)[C@@H]2O)[C@H](O)[C@@H]1O[C@H]1O[C@H](CO)[C@@H](O)[C@H](N)[C@@H]1O`, the activation is inactive: -0.517%.
As to `CC(C)CCNc1nc(Nc2ccccc2)c2cnn(C)c2n1`, the activation was inactive: -22.5%.
As to `CCOC(=O)c1ccc(-n2c(CCC(=O)O)ccc2-c2ccccc2)cc1O`, the activation is inactive: -3.16%.
Turning to `Cc1cc(F)ccc1Nc1nc2ccc(Cl)cc2n2cnnc12`, the activation is inactive: -25%.
The figure for `CCC(C)(C)NC(=O)C(NS(=O)(=O)c1cccs1)c1ccccc1` (stereo unspecified) is inactive: -3.67%; for `COc1ccc(N2CCN(C(=O)C(CC(C)C)NS(=O)(=O)c3ccc4nc(C)sc4c3)CC2)cc1` (stereo unspecified) it is inactive: -13.6%; for `Cc1cc(=O)oc2cc(O)ccc12` it is inactive: -7.06%.
As to `CNC(=O)c1cc2c(cn1)[nH]c1ccccc12`, the activation is inactive: 15.5%.
The figure for `CC(CC(=O)Nc1ccc(F)cc1)S(=O)(=O)c1cc2c3c(c1)CCN3C(=O)CC2` (stereo unspecified) is inactive: -3.24%; for `COc1ccc(NC(=O)/C=C/c2ccc(Cl)cc2)cc1` it is inactive: 12.8%.
The same measure for `COC(=O)c1ccccc1NC(=O)CSc1nc2ccccc2nc1Cc1ccc(F)cc1`: inactive: -7.36%; for `O=C(NC1CCCCC1)c1ccc2c(c1)N(Cc1cccc(Cl)c1)C(=O)c1ccccc1S2(=O)=O`: inactive: -19.2%; for `CNc1ccc(-c2nc(-c3ccncc3)no2)cc1[N+](=O)[O-]`: inactive: 0.499%.
On to `COc1ccc(NC(=O)C2=C(C)Nc3ncnn3C2c2sccc2C)cc1` (stereo unspecified), for which the activation is inactive: 1.92%.
The same measure for `CC(=O)N1CCCC1c1nc2ccccc2n1Cc1c(F)cccc1Cl` (stereo unspecified): inactive: -6.83%.
Turning to `COc1cc(OC)c(NC(=O)Cc2c(C(=O)O)c(C)cn2C)cc1Cl`, the activation was inactive: -7.99%.
The figure for `CCCCn1c(=O)c2oc3ccccc3c2n(CC(=O)Nc2cc(C)ccc2C)c1=O` is inactive: -9.04%; for `Cc1ccc(CNC(=O)Cc2c(C(=O)O)c(C)cn2C)cc1` it is inactive: 0.819%; for `Cc1ccc2oc(=O)n(CCNC(=O)Nc3ccccc3C)c2c1` it is inactive: 30.6%.
Take `COc1ccc(OC2CCN(S(=O)(=O)c3cccc(F)c3)CC2)cc1`: the activation is inactive: -21.1%.
For `CCc1ccc(OCC(=O)Nc2ccc(S(=O)(=O)Nc3onc(C)c3C)cc2)cc1`, the activation is inactive: 35.2%.
On to `COc1ccc(C)cc1NC(=O)C(NS(=O)(=O)c1cccs1)c1ccccc1` (stereo unspecified), for which the activation is inactive: 15%.
The figure for `Cc1cccc(C(=O)N2CCNC(=O)C2CC(=O)Nc2ccc(F)cc2)c1` (stereo unspecified) is inactive: 7.54%; for `CCOc1ccc(CN2C(=O)c3ccccc3Sc3ccc(C(=O)NCc4ccc5c(c4)OCO5)cc32)cc1` it is inactive: -18.8%; for `Cc1ccccc1NC(=O)Nc1csc2c1CCCC2` it is inactive: 0.4%.
The same measure for `COc1ccc(C(=O)CSc2nc3cc(C(=O)NC4CCCC4)ccc3c(=O)n2CC2CCCO2)cc1` (stereo unspecified): inactive: -14.9%.
The same measure for `Cc1cccc(NC(=O)Cn2c(=O)n(CCc3ccccc3)c(=O)c3ccccc32)c1`: active: 74.8%.
Consider `COc1ccc(C2C(C(=O)Nc3ccccc3)=C(C)Nc3nc(-c4ccccc4)nn32)c(OC)c1` (stereo unspecified), for which the activation is inactive: -13.2%.
The figure for `COC(=O)c1cc2oc3ccccc3c2n1CC(=O)Nc1cccc(SC)c1` is inactive: 26.7%.
Take `CCCc1cnc2c(c1SCc1cccc(C)c1)c(=O)n(C)c(=O)n2C`: the activation is inactive: -16.3%.
The figure for `CCCOc1cccc(C(=O)Nc2cc(-c3nc4ccccc4[nH]3)ccc2C)c1` is inactive: 21.2%.
The same measure for `COc1ccc(S(=O)(=O)NCCc2sc(C)nc2C)cc1`: inactive: 12.2%; for `COc1cc(OC)c(NC(=O)c2sc3nc4n(c(=O)c3c2C)CCCC4)cc1Cl`: inactive: 8.19%; for `CCCCC(=O)N1CC(=O)Nc2ccc(F)cc2C1c1ccc(F)cc1` (stereo unspecified): inactive: -5.68%.
Take `O=C(CC1C(=O)OCCN1Cc1ccccc1)Nc1cccc(Cl)c1` (stereo unspecified): the activation is inactive: 23.4%.
The same measure for `Cc1ccc(CCNC(=O)CN2C(=O)COc3ccc(S(=O)(=O)N4CCCC4)cc32)cc1`: inactive: -14.8%; for `Cc1cc(C)cc(NC(=O)c2nnn(Cc3cccc(Br)c3)c2N)c1`: inactive: 37.7%; for `COc1ccc(-n2c(-c3ccccc3F)nc3c(cnn3-c3ccc(C)cc3)c2=O)cc1`: inactive: -26.1%.
For `CCOc1cc(Cn2c(-c3ccc(O)c(OCC)c3)nc3ccccc32)ccc1O`, the activation was inactive: -23%.
For `CCOC(=O)[C@H](CCc1ccccc1)N[C@H]1CCc2ccccc2N(CC(=O)O)C1=O`, the activation was inactive: 5.98%.
The figure for `CC(=O)c1ccc(NC(=O)c2sc(-n3nc(C)c(CCC(C)C)c3C)nc2C)cc1` is inactive: -12.5%.
`Cc1ccc(S(=O)Cc2ccc(C(=O)NCc3ccc(OC(C)C)cc3)o2)cc1` (stereo unspecified): the activation was inactive: -17.8%.
Turning to `Cc1nc2c3cccnc3nn2c(C)c1CCC(=O)NCc1ccccc1Cl`, the activation is inactive: -17.8%.
The same measure for `Cc1ccc2c(Sc3ccccc3)c(C(=O)NCc3ccccc3F)[nH]c2c1`: inactive: -4.49%; for `CCOc1ccccc1NC(=O)CSc1nc2ccccc2nc1Cc1ccc(C)cc1`: active: 70.5%; for `Cc1oc(-c2ccccc2Cl)nc1CS(=O)CC(=O)N1CCN(c2cccc(C(F)(F)F)c2)CC1` (stereo unspecified): inactive: -8.54%.
The figure for `Cn1nnnc1SCCCNCc1cc(Br)ccc1OCc1ccccc1` is inactive: 19.4%.
Turning to `COc1cc2c(cc1OC)-c1cc(=Nc3c(C)cc(C)cc3C)n(C)c(=O)n1CC2`, the activation was inactive: -18.9%.
For `Cc1nc2sccn2c(=O)c1S(=O)(=O)Nc1ccc(N2CCN(C)CC2)cc1`, the activation was inactive: -3.04%.
The figure for `COc1ccc(-c2nn3c(=O)cc(CN4CCN(C(=O)Nc5cc(C)ccc5C)CC4)nc3s2)cc1` is inactive: -4.73%; for `COc1cc(OC)c(NC(=O)NCCn2nnc3cc(S(=O)(=O)N(C)C)ccc32)cc1Cl` it is inactive: -7.22%; for `COc1ccc(-c2c(C#N)c(SCC(=O)Nc3ccc(C)c(C)c3)nc(C)c2C(=O)Nc2ccc(Cl)cc2)cc1` it is inactive: -6.69%.
On to `Cc1cc(-c2ccc(S(=O)(=O)Nc3cccc(C)c3C)s2)on1`, for which the activation was inactive: -6.51%.
The same measure for `CCOc1ccc(CCNC(=O)C(CC)n2nc(C)c3c(C)n(-c4ccccc4)nc3c2=O)cc1` (stereo unspecified): inactive: -12.3%.
The same measure for `CCCCNc1ccc(C(=O)OCCN(CC)CC)cc1`: inactive: 2.95%; for `CCCCSCCCNC(=O)C1CCN(Cc2nc(-c3ccc(CC)cc3)oc2C)CC1`: inactive: 25.3%.
The same measure for `Cc1cccc(N2CCN(C(=O)c3sc4nc5n(c(=O)c4c3C)CCC5)CC2C)c1` (stereo unspecified): inactive: -1.78%; for `O=C(CSc1nnc(-c2ccccc2Br)n1-c1ccccc1)c1ccc(F)cc1`: active: 60.2%.
Take `Cc1nc2ccn(Cc3cccnc3)c(=O)c2cc1C(=O)NCc1ccccc1`: the activation was inactive: -14.8%.
For `CC(C)(C)C1CCc2nc(NC(=O)c3cccc(Cl)c3)sc2C1` (stereo unspecified), the activation was inactive: -9.92%.
The same measure for `COC(=O)c1ccc(OCC2c3cc(OC)c(OC)cc3CCN2C(=O)c2ccc(OC)cc2)cc1` (stereo unspecified): inactive: -0.613%.
The same measure for `O=c1[nH]c(SCc2ccccc2)nc2c1CCCC2`: inactive: -2.32%; for `Cc1ccc(C)c(NC(=O)Cn2cnc3c(oc4ccccc43)c2=O)c1`: inactive: -2.21%.
The figure for `Cc1cccc(N(CC(=O)NCc2ccccc2)S(C)(=O)=O)c1C` is inactive: 2.35%; for `CCc1ccc(C2=CC(c3cccc(C)c3)n3c(nc4ccccc43)N2)cc1` (stereo unspecified) it is inactive: -5%.
For `CCc1ccc(-c2nc(CN3CCC(C(=O)NCCc4ccc(C)cc4)CC3)c(C)o2)cc1`, the activation was inactive: -1.79%.
In the case of `COc1ccc(CNC(=O)CSCc2nc(-c3ccccc3F)oc2C)cc1`, the activation is inactive: -17.2%.
